# Measurements: the supplement of paper PMC8728848
# The other results are listed elsewhere or left out.
# B1: OGAN (protein)
# chain: MVQKESQATLEERESELSSNPAASAGASLEPPAAPAPGEDNPAGAGGAAVAGAAGGARRFLCGVVEGFYGRPWVMEQRKELFRRLQKWELNTYLYAPKDDYKHRMFWREMYSVEEAEQLMTLISAAREYEIEFIYAISPGLDITFSNPKEVSTLKRKLDQVSQFGCRSFALLFNDIDHNMCAADKEVFSSFAHAQVSITNEIYQYLGEPETFLFCPTEYCGTFCYPNVSQSPYLRTVGEKLLPGIEVLWTGPKVVSKEIPVESIEEVSKIIKRAPVIWDNIHANDYDQKRLFLGPYKGRSTELIPRLKGVLTNPNCEFEANYVAIHTLATWYKSNMNGVRKDVVMTDSEDSTVSIQIKLENEGSDEDIETDVLYSPQMALKLALTEWLQEFGVPHQY
# Experiments:
# Experiment in all cases: glycan array binding signal (z-score within array); higher = stronger binding
# Details in all cases: glycan notation: IUPAC condensed, linker removed
# [1] = molecular target: GlcNAc(b1-3)Gal(b1-4)GlcNAc(b1-3)Gal(b1-4)GlcNAc(b1-3)GalNAc
# Outline: (§1)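 The Consortium for Functional Glycomics database supplied 3228 glycan arrays, of which those lacking an available protein sequence were dropped. The binding signal, a within-array Z-score, was averaged across arrays of the same protein sequence and across linkers. Negative scores can be read as non-binding.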
# [2] = molecular target: GlcNAc(b1-3)Gal(b1-4)GlcNAc(b1-3)GalNAc
# Outline: as §1
# [3] = molecular target: GlcNAc(b1-3)Gal(b1-4)GlcNAc(b1-3)[GlcNAc(b1-3)Gal(b1-4)GlcNAc(b1-3)]GalNAc
# Outline: as §1
# [4] = molecular target: GlcNAc(b1-3)Gal(b1-4)GlcNAc(b1-6)[Gal(b1-3)]GalNAc
# Outline: as §1
# [5] = molecular target: GlcNAc(b1-3)Gal(b1-4)GlcNAc(b1-6)[GlcNAc(b1-3)Gal(b1-3)]GalNAc
# Outline: as §1
# [6] = molecular target: GlcNAc(b1-3)Gal(b1-4)GlcNAc(b1-6)[GlcNAc(b1-3)]Gal(b1-4)GlcNAc
# Outline: as §1
# GlcNAc(b1-3)GalNAc = molecular target: GlcNAc(b1-3)GalNAc
# Outline: as §1
# GlcNAc(b1-3)Man = molecular target: GlcNAc(b1-3)Man
# Outline: as §1
# [7] = molecular target: GlcNAc(b1-3)[GlcNAc(b1-4)][GlcNAc(b1-6)]GlcNAc
# Outline: as §1
# [8] = molecular target: GlcNAc(b1-3)[GlcNAc(b1-6)]Gal(b1-4)GlcNAc
# Outline: as §1
# [9] = molecular target: GlcNAc(b1-3)[GlcNAc(b1-6)]GalNAc
# Outline: as §1
# [10] = molecular target: GlcNAc(b1-4)Gal(b1-4)GlcNAc
# Outline: as §1
# GlcNAc(b1-4)GlcNAc = molecular target: GlcNAc(b1-4)GlcNAc
# Outline: as §1
# [11] = molecular target: GlcNAc(b1-4)GlcNAc(b1-4)GlcNAc
# Outline: as §1
# [12] = molecular target: GlcNAc(b1-4)GlcNAc(b1-4)GlcNAc(b1-4)GlcNAc(b1-4)GlcNAc
# Outline: as §1
# [13] = molecular target: GlcNAc(b1-4)GlcNAc(b1-4)GlcNAc(b1-4)GlcNAc(b1-4)GlcNAc(b1-4)GlcNAc
# Outline: as §1
# [14] = molecular target: GlcNAc(b1-4)[GlcNAc(b1-6)]GalNAc
# Outline: as §1
# [15] = molecular target: GlcNAc(b1-6)Gal(b1-4)GlcNAc
# Outline: as §1
# GlcNAc(b1-6)GalNAc = molecular target: GlcNAc(b1-6)GalNAc
# Outline: as §1
# [16] = molecular target: GlcNAc6S(b1-3)Gal(b1-4)GlcNAc
# Outline: as §1
# Kdn(a2-3)Gal(b1-3)GalNAc = molecular target: Kdn(a2-3)Gal(b1-3)GalNAc
# Outline: as §1
# Kdn(a2-3)Gal(b1-3)GlcNAc = molecular target: Kdn(a2-3)Gal(b1-3)GlcNAc
# Outline: as §1
# Kdn(a2-3)Gal(b1-4)Glc = molecular target: Kdn(a2-3)Gal(b1-4)Glc
# Outline: as §1
# Kdn(a2-3)Gal(b1-4)GlcNAc = molecular target: Kdn(a2-3)Gal(b1-4)GlcNAc
# Outline: as §1
# [17] = molecular target: Kdn(a2-3)Gal(b1-4)[Fuc(a1-3)]GlcNAc
# Outline: as §1
# Kdn(a2-6)Gal(b1-4)GlcNAc = molecular target: Kdn(a2-6)Gal(b1-4)GlcNAc
# Outline: as §1
# [18] = molecular target: Man(a1-2)Man(a1-2)Man(a1-3)Man
# Outline: as §1
# [19] = molecular target: Man(a1-2)Man(a1-2)Man(a1-6)[Man(a1-3)]Man
# Outline: as §1
# Man(a1-2)Man(a1-3)Man = molecular target: Man(a1-2)Man(a1-3)Man
# Outline: as §1
# [20] = molecular target: Man(a1-2)Man(a1-3)[Man(a1-2)Man(a1-6)]Man
# Outline: as §1
# [21] = molecular target: Man(a1-2)Man(a1-3)[Man(a1-2)Man(a1-6)]Man(a1-6)[Man(a1-2)Man(a1-2)Man(a1-3)]Man
# Outline: as §1
# [22] = molecular target: Man(a1-2)Man(a1-3)[Man(a1-2)Man(a1-6)]Man(a1-6)[Man(a1-2)Man(a1-2)Man(a1-3)]Man(b1-4)GlcNAc(b1-4)GlcNAc
# Outline: as §1
# [23] = molecular target: Man(a1-2)Man(a1-3)[Man(a1-6)]Man(a1-6)[Man(a1-2)Man(a1-3)]Man(b1-4)GlcNAc(b1-4)GlcNAc
# Outline: as §1
# [24] = molecular target: Man(a1-2)Man(a1-6)[Man(a1-3)]Man(a1-6)[Man(a1-2)Man(a1-2)Man(a1-3)]Man
# Outline: as §1
# [25] = molecular target: Man(a1-2)Man(a1-6)[Man(a1-3)]Man(a1-6)[Man(a1-2)Man(a1-2)Man(a1-3)]Man(b1-4)GlcNAc(b1-4)GlcNAc
# Outline: as §1
# Man(a1-3)[Man(a1-6)]Man = molecular target: Man(a1-3)[Man(a1-6)]Man
# Outline: as §1
# [26] = molecular target: Man(a1-3)[Man(a1-6)]Man(a1-6)[Man(a1-2)Man(a1-3)]Man(b1-4)GlcNAc(b1-4)GlcNAc
# Outline: as §1
binder,measurement,setting,value
B1,glycan array binding signal (z-score),[1],-0.017
same,glycan array binding signal (z-score),[2],-0.061
same,glycan array binding signal (z-score),[3],-0.067
same,glycan array binding signal (z-score),[4],-0.055
same,glycan array binding signal (z-score),[5],-0.052
same,glycan array binding signal (z-score),[6],-0.063
same,glycan array binding signal (z-score),GlcNAc(b1-3)GalNAc,-0.082
same,glycan array binding signal (z-score),GlcNAc(b1-3)Man,-0.072
same,glycan array binding signal (z-score),[7],-0.047
same,glycan array binding signal (z-score),[8],-0.04
same,glycan array binding signal (z-score),[9],-0.015
same,glycan array binding signal (z-score),[10],-0.076
same,glycan array binding signal (z-score),GlcNAc(b1-4)GlcNAc,-0.058
same,glycan array binding signal (z-score),[11],-0.11
same,glycan array binding signal (z-score),[12],-0.084
same,glycan array binding signal (z-score),[13],-0.09
same,glycan array binding signal (z-score),[14],-0.065
same,glycan array binding signal (z-score),[15],-0.024
same,glycan array binding signal (z-score),GlcNAc(b1-6)GalNAc,-0.064
same,glycan array binding signal (z-score),[16],-0.094
same,glycan array binding signal (z-score),Kdn(a2-3)Gal(b1-3)GalNAc,-0.053
same,glycan array binding signal (z-score),Kdn(a2-3)Gal(b1-3)GlcNAc,-0.082
same,glycan array binding signal (z-score),Kdn(a2-3)Gal(b1-4)Glc,-0.059
same,glycan array binding signal (z-score),Kdn(a2-3)Gal(b1-4)GlcNAc,-0.083
same,glycan array binding signal (z-score),[17],-0.059
same,glycan array binding signal (z-score),Kdn(a2-6)Gal(b1-4)GlcNAc,-0.052
same,glycan array binding signal (z-score),[18],-0.08
same,glycan array binding signal (z-score),[19],-0.022
same,glycan array binding signal (z-score),Man(a1-2)Man(a1-3)Man,-0.01
same,glycan array binding signal (z-score),[20],-0.051
same,glycan array binding signal (z-score),[21],-0.019
same,glycan array binding signal (z-score),[22],-0.036
same,glycan array binding signal (z-score),[23],-0.061
same,glycan array binding signal (z-score),[24],-0.09
same,glycan array binding signal (z-score),[25],-0.071
same,glycan array binding signal (z-score),Man(a1-3)[Man(a1-6)]Man,-0.093
same,glycan array binding signal (z-score),[26],-0.069
